# The source gives many values for each of these; only a part stands here.
# Assay: Solubility test: ability of each solvent to dissolve at least 1 percent by weight at a process temperature near its boiling point (Example 1)
# Format: physicochemical
# Text: This example illustrates solvent mapping, testing and solubility region definition for a diacetylenic monomer for which new solvents and solubility information are desired, namely 2,4-hexadiyn-1,6-bis(ethylurea) and for which reliable solubility parameter information is not available. In this example, solubility points are mapped for each of a number of representative samples of a wide range of solvents of different chemical types and physicochemical characteristics, according to their solubility parameters. The solubility points of the representative solvents (filled squares) are mapped on a plot of hydrogen bonding (δH), on the Y-axis, versus polar parameters (δP), on the X-axis, generating a map such as that shown in FIG. 4. Also shown in FIG. 4 are solubility points for solvent systems comprising 25 percent by weight water/solvent mixtures (unfilled squares).
# Each solvent is tested for its ability to dissolve at least 1 percent by weight 2,4-hexadiyn-1,6-bis(ethylurea) at a temperature not more than 5° C. above the boiling point of the solvent. Because the boiling points of the solvents tested vary widely, ranging from 56° C. to 189° C. the solvents are processed in batches at temperatures of 60, 75, 82, and 90° C., respectively. The process temperature desirably is not greater than 4 to 5° C. above a given solvent's boiling point.
# Some exemplary solubility data obtainable for 2,4-hexadiyn-1,6-bis(ethylurea) from the above-described solubility test with the solvents indicated, are set forth in Table 1 below along with solubility parameter information for the solvents. Also included in Table 1 are data regarding the 25 percent by weight water/solvent mixtures.
compound,measurement,setting,value
"CCNC(=O)NCC#CC#CCNC(=O)NCC [KE, 2,4-hexadiyn-1,6-bis(ethylurea)]",KE soluble at 1% wt?,"solvent 1,2-Dichlorobenzene, process T 90 °C",No
same,KE soluble at 1% wt?,"solvent 1-Propanol, process T 82 °C",Yes
same,KE soluble at 1% wt?,"solvent 2-Propanol (IPA), process T 82 °C",Yes
same,KE soluble at 1% wt?,"solvent 25% Water/Acetone, process T 60 °C",Yes
same,KE soluble at 1% wt?,"solvent 25% Water/DMF, process T 90 °C",Yes
same,KE soluble at 1% wt?,"solvent 25% Water/DMSO, process T 90 °C",Yes
same,KE soluble at 1% wt?,"solvent 25% Water/Ethanol, process T 82 °C",Yes
same,KE soluble at 1% wt?,"solvent 25% Water/IPA, process T 82 °C",Yes
same,KE soluble at 1% wt?,"solvent 25% Water/acetic acid, process T 90 °C",Yes
same,KE soluble at 1% wt?,"solvent 25% Water/formic acid, process T 90 °C",Yes
same,KE soluble at 1% wt?,"solvent Acetic acid, process T 90 °C",Yes
same,KE soluble at 1% wt?,"solvent Acetone, process T 60 °C",No
same,KE soluble at 1% wt?,"solvent Acetonitrile, process T 82 °C",No
same,KE soluble at 1% wt?,"solvent Cellosolve ® acetate, process T 90 °C",No
same,KE soluble at 1% wt?,"solvent Chloroform, process T 60 °C",No
same,KE soluble at 1% wt?,"solvent Cyclohexane, process T 82 °C",No
same,KE soluble at 1% wt?,"solvent DMF, process T 90 °C",Yes
same,KE soluble at 1% wt?,"solvent DMSO, process T 90 °C",Yes
same,KE soluble at 1% wt?,"solvent E3EP (ethyl 3-ethoxypropionate), process T 90 °C",No
same,KE soluble at 1% wt?,"solvent Ethylene glycol, process T 90 °C",Yes
same,KE soluble at 1% wt?,"solvent Formic acid, process T 90 °C",Yes
same,KE soluble at 1% wt?,"solvent Glycerol, process T 90 °C",No
same,KE soluble at 1% wt?,"solvent Methanol, process T 60 °C",Yes
same,KE soluble at 1% wt?,"solvent Pyridine, process T 90 °C",Sparingly
same,KE soluble at 1% wt?,"solvent Toluene, process T 90 °C",No
same,KE soluble at 1% wt?,"solvent Water, process T 90 °C",No

# — patent publication US8642807B2, “Crystallized diacetylenic indicator compounds and methods of preparing the compounds” (Temptime Corporation, priority 2007, dated 2014)
